Binding signal data for 31 molecules are collected here from paper PMC9911399, “Two distinct binding modes provide the RNA-binding protein RbFox with extraordinary sequence specificity”.

Residue numbers refer to the chain shown, from its start. The list shows a part of the results.

B1: GACACUU (DNA:RNA)
RNA: GGGAGACCGGAAUUCAGAUUGUCCGACACUUUUAAAUCCCGUCGUAGCCACCA
DNA 1: CAATCTGAATTCCGGTCTCCC
DNA 2: TGGTGGCTACGACGGGATT
B2: UACUUCG (DNA:RNA)
RNA: B1 RNA with G25U, A28U, C29U, U30C, U31G
DNA 1: CAATCTGAATTCCGGTCTCCC
DNA 2: TGGTGGCTACGACGGGATT
B3: AUAAUUC (DNA:RNA)
RNA: B1 RNA with G25A, A26U, C27A, C29U, U31C
DNA 1: CAATCTGAATTCCGGTCTCCC
DNA 2: TGGTGGCTACGACGGGATT
B4: AGACGCG (DNA:RNA)
RNA: GGGAGACCGGAAUUCAGAUUGUCCAGACGCGUUAAAUCCCGUCGUAGCCACCA
DNA 1: CAATCTGAATTCCGGTCTCCC
DNA 2: TGGTGGCTACGACGGGATT
B5: CCGAAUA (DNA:RNA)
RNA: B1 RNA with G25C, A26C, C27G, C29A, U31A
DNA 1: CAATCTGAATTCCGGTCTCCC
DNA 2: TGGTGGCTACGACGGGATT
B6: AACUCAU (DNA:RNA)
RNA: B1 RNA with G25A, A28U, U30A
DNA 1: CAATCTGAATTCCGGTCTCCC
DNA 2: TGGTGGCTACGACGGGATT
B7: UCUCCAU (DNA:RNA)
RNA: B1 RNA with G25U, A26C, C27U, A28C, U30A
DNA 1: CAATCTGAATTCCGGTCTCCC
DNA 2: TGGTGGCTACGACGGGATT
B8: UAGUCCG (DNA:RNA)
RNA: B4 RNA with A25U, G26A, A27G, C28U, G29C
DNA 1: CAATCTGAATTCCGGTCTCCC
DNA 2: TGGTGGCTACGACGGGATT
B9: UAACGAG (DNA:RNA)
RNA: B4 RNA with A25U, G26A, C30A
DNA 1: CAATCTGAATTCCGGTCTCCC
DNA 2: TGGTGGCTACGACGGGATT
B10: GUCUGUA (DNA:RNA)
RNA: B1 RNA with A26U, A28U, C29G, U31A
DNA 1: CAATCTGAATTCCGGTCTCCC
DNA 2: TGGTGGCTACGACGGGATT
B11: AUUGUAA (DNA:RNA)
RNA: B4 RNA with G26U, A27U, C28G, G29U, C30A, G31A
DNA 1: CAATCTGAATTCCGGTCTCCC
DNA 2: TGGTGGCTACGACGGGATT
B12: AGUCGUG (DNA:RNA)
RNA: B4 RNA with A27U, C30U
DNA 1: CAATCTGAATTCCGGTCTCCC
DNA 2: TGGTGGCTACGACGGGATT
B13: GUGGUGC (DNA:RNA)
RNA: B1 RNA with A26U, C27G, A28G, C29U, U30G, U31C
DNA 1: CAATCTGAATTCCGGTCTCCC
DNA 2: TGGTGGCTACGACGGGATT
B14: UGCGACA (DNA:RNA)
RNA: B4 RNA with A25U, A27C, C28G, G29A, G31A
DNA 1: CAATCTGAATTCCGGTCTCCC
DNA 2: TGGTGGCTACGACGGGATT
B15: ACAUUAG (DNA:RNA)
RNA: B4 RNA with G26C, C28U, G29U, C30A
DNA 1: CAATCTGAATTCCGGTCTCCC
DNA 2: TGGTGGCTACGACGGGATT
B16: UCGAUGC (DNA:RNA)
RNA: B1 RNA with G25U, A26C, C27G, C29U, U30G, U31C
DNA 1: CAATCTGAATTCCGGTCTCCC
DNA 2: TGGTGGCTACGACGGGATT
B17: GUCUAUC (DNA:RNA)
RNA: B1 RNA with A26U, A28U, C29A, U31C
DNA 1: CAATCTGAATTCCGGTCTCCC
DNA 2: TGGTGGCTACGACGGGATT
B18: AUACUAG (DNA:RNA)
RNA: B4 RNA with G26U, G29U, C30A
DNA 1: CAATCTGAATTCCGGTCTCCC
DNA 2: TGGTGGCTACGACGGGATT
B19: GAAGCGC (DNA:RNA)
RNA: B1 RNA with C27A, A28G, U30G, U31C
DNA 1: CAATCTGAATTCCGGTCTCCC
DNA 2: TGGTGGCTACGACGGGATT
B20: UUGAAGA (DNA:RNA)
RNA: B1 RNA with G25U, A26U, C27G, C29A, U30G, U31A
DNA 1: CAATCTGAATTCCGGTCTCCC
DNA 2: TGGTGGCTACGACGGGATT
B21: AUAAUCC (DNA:RNA)
RNA: B4 RNA with G26U, C28A, G29U, G31C
DNA 1: CAATCTGAATTCCGGTCTCCC
DNA 2: TGGTGGCTACGACGGGATT
B22: UGGAGCG (DNA:RNA)
RNA: B4 RNA with A25U, A27G, C28A
DNA 1: CAATCTGAATTCCGGTCTCCC
DNA 2: TGGTGGCTACGACGGGATT
B23: UCCUGCU (DNA:RNA)
RNA: B4 RNA with A25U, G26C, A27C, C28U, G31U
DNA 1: CAATCTGAATTCCGGTCTCCC
DNA 2: TGGTGGCTACGACGGGATT
B24: CUUCAGG (DNA:RNA)
RNA: B4 RNA with A25C, G26U, A27U, G29A, C30G
DNA 1: CAATCTGAATTCCGGTCTCCC
DNA 2: TGGTGGCTACGACGGGATT
B25: AUUAGAG (DNA:RNA)
RNA: B4 RNA with G26U, A27U, C28A, C30A
DNA 1: CAATCTGAATTCCGGTCTCCC
DNA 2: TGGTGGCTACGACGGGATT
B26: CUUUCUC (DNA:RNA)
RNA: B1 RNA with G25C, A26U, C27U, A28U, U31C
DNA 1: CAATCTGAATTCCGGTCTCCC
DNA 2: TGGTGGCTACGACGGGATT
B27: UACCAAC (DNA:RNA)
RNA: B1 RNA with G25U, A28C, C29A, U30A, U31C
DNA 1: CAATCTGAATTCCGGTCTCCC
DNA 2: TGGTGGCTACGACGGGATT
B28: GCGUGGU (DNA:RNA)
RNA: B1 RNA with A26C, C27G, A28U, C29G, U30G
DNA 1: CAATCTGAATTCCGGTCTCCC
DNA 2: TGGTGGCTACGACGGGATT
B29: UGACGGG (DNA:RNA)
RNA: B4 RNA with A25U, C30G
DNA 1: CAATCTGAATTCCGGTCTCCC
DNA 2: TGGTGGCTACGACGGGATT
B30: GGCUUCA (DNA:RNA)
RNA: B4 RNA with A25G, A27C, C28U, G29U, G31A
DNA 1: CAATCTGAATTCCGGTCTCCC
DNA 2: TGGTGGCTACGACGGGATT
B31: UAGCGUA (DNA:RNA)
RNA: B4 RNA with A25U, G26A, A27G, C30U, G31A
DNA 1: CAATCTGAATTCCGGTCTCCC
DNA 2: TGGTGGCTACGACGGGATT

This test addresses T1, RBFOX1 RRM RbFoxmut (Fox-RRM*) (Homo sapiens, UniProt Q9NWB1 109-208, R118D;E147R;N151S;E152T).
T1 sequence: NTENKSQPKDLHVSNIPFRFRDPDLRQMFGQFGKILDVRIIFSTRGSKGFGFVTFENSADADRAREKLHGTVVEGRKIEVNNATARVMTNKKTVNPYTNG
Put plainly: EMSA; HiTS-Eq, 1 nM pool, 10 min; buffer printed only for the single-RNA assays: 10 mM Tris pH 7.5, 150 mM NaCl, 3.4 mM EDTA, 0.001% NP-40, 30 C. Particulars: tags: His6 N-terminal (pET28a); label: 5' 32P. The gist of the method: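 Relative association constants, normalised to the cognate motif, were derived by comparing read counts of each RNA species with those of the control reaction. The RNA sequenced was the free fraction, separated by 8% native PAGE after a 10 min equilibration in 50 µL of 1 nM 5′-radiolabelled RNA (7 randomized nucleotides) with increasing concentrations of purified wild-type or mutant RbFox RRM.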
For orientation: In EMSA bound probe runs differently from free probe, usually more slowly.
Regarding B1, the binding signal was 0.0571 KA relative to UGCAUGU.

Turning to B2, the binding signal was 0.0725 KA relative to UGCAUGU.

B3: the binding signal was 0.0977 KA relative to UGCAUGU.

With B4, the binding signal was 0.125 KA relative to UGCAUGU.

As to B5, the binding signal was 0.0834 KA relative to UGCAUGU.

Consider B6, for which the binding signal was 0.102 KA relative to UGCAUGU.

As to B7, the binding signal was 0.0978 KA relative to UGCAUGU.

On to B8, for which the binding signal is 0.112 KA relative to UGCAUGU.

Regarding B9, the binding signal was 0.0709 KA relative to UGCAUGU.

For the molecule B10, the binding signal is 0.21 KA relative to UGCAUGU.

For the molecule B11, the binding signal is 0.154 KA relative to UGCAUGU.

Regarding B12, the binding signal was 0.117 KA relative to UGCAUGU.

In the case of B13, the binding signal was 0.165 KA relative to UGCAUGU.

For the molecule B14, the binding signal was 0.0626 KA relative to UGCAUGU.

B15: the binding signal is 0.134 KA relative to UGCAUGU.

As for B16, the binding signal is 0.0993 KA relative to UGCAUGU.

Turning to B17, the binding signal was 0.0839 KA relative to UGCAUGU.

Regarding B18, the binding signal is 0.118 KA relative to UGCAUGU.

For B19, the binding signal is 0.0729 KA relative to UGCAUGU.

Consider B20, for which the binding signal is 0.0875 KA relative to UGCAUGU.

For the molecule B21, the binding signal is 0.0712 KA relative to UGCAUGU.

In the case of B22, the binding signal was 0.17 KA relative to UGCAUGU.

For B23, the binding signal was 0.0926 KA relative to UGCAUGU.

In the case of B24, the binding signal was 0.0952 KA relative to UGCAUGU.

As for B25, the binding signal is 0.146 KA relative to UGCAUGU.

Turning to B26, the binding signal is 0.075 KA relative to UGCAUGU.

Regarding B27, the binding signal was 0.0684 KA relative to UGCAUGU.

Turning to B28, the binding signal is 0.163 KA relative to UGCAUGU.

As for B29, the binding signal is 0.0677 KA relative to UGCAUGU.

B30: the binding signal was 0.132 KA relative to UGCAUGU.

Take B31: the binding signal is 0.147 KA relative to UGCAUGU.
